Several values for one entry are separate records, joined by “and”; a condition that tells them apart may be missing. Identical values can stand only once. Screen size: about 240,000 compounds; about 20 (0.008%) were called active. This list was built around the results that the source calls inconclusive (neither active nor inactive); the mix of calls is not that of the screen. The call rests on the fitted dose curve; in most records, active means well fitted inhibition curve with a large enough effect; inconclusive means small, poorly fitted or top-dose-only effect, or effect the other way; inactive means flat fitted curve, though single readings scatter. Potencies beside an inconclusive call are fits to weak or partial responses and may not hold up.
Target: Alpha-galactosidase A (Homo sapiens) (UniProt P06280)
Chain of UniProt P06280 (P06280 whole entry, looked up): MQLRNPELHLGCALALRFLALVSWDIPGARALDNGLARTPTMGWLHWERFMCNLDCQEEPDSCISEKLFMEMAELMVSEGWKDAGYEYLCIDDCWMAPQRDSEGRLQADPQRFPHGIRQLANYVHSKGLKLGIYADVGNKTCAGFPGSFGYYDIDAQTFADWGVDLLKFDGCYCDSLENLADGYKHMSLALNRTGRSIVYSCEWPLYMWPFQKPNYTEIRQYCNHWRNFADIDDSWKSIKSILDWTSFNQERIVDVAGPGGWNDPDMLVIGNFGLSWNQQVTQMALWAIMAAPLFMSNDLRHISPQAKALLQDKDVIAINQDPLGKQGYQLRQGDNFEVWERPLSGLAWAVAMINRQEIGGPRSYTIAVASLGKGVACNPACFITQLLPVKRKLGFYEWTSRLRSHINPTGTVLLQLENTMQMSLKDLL
Assay: qHTS Assay for Inhibitors and Activators of Human alpha-Galactosidase From Spleen Homogenate
Conditions: 4MU-alpha-Gal fluorescence, 40 min; series mostly up to 80 µM
Procedure, shortened: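 qHTS titration in buffer at pH 5.0. Alpha-galactosidase activity in spleen homogenate was measured via 4-methylumbelliferone release from 1 mM fluorogenic substrate after 40 min at 37C and a pH 10 stop. AC50 came from Hill fits of control-normalized data.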
Potency means the concentration at half of the fitted maximal effect; tags describe the fitted curve by direction and shape.

**Q.** How did the Potency turn out when `CCOC(=O)Cc1cc(-c2ccc(OC)cc2)nc2ccc3ccccc3c12` was run?
**A.** inconclusive: 44.7 µM [activator, single point]

**Q.** Which Potency does the source give for `O=c1/c(=C/c2cn(-c3ccccc3)nc2-c2ccc(F)cc2)sc2nc3ccccc3n12` here?
**A.** inconclusive: 11.2 µM [activator, single point]

**Q.** With `CN(C)c1ccc(-c2cc(N(C)Cc3ccco3)ncn2)cc1` as the compound, how does the Potency read?
**A.** inconclusive: 39.8 µM [activator, partial curve]

**Q.** With `Cc1ccc(-n2c(-c3ccc(Cl)cc3)c[n+]3c2CCC3)cc1` as the compound, how does the Potency read?
**A.** inactive

**Q.** With `CCc1ccc(C2=NN(c3ccc(S(N)(=O)=O)cc3)C(c3ccc(F)cc3)C2)cc1` (stereo not given) as the compound, how does the Potency read?
**A.** inconclusive: 35.5 µM [activator, partial curve]

**Q.** How did the Potency turn out when `O=C(Nc1ccccc1)C12CC1/C(=N\O)c1ccccc1O2` (stereo not given) was run?
**A.** inactive

**Q.** For `CCc1c(C)c2ccc(O)c(CN(C)C)c2oc1=O`, which Potency is on record?
**A.** inconclusive: 35.5 µM [activator, partial curve]

**Q.** Which Potency does the source give for `Oc1cnc2ccccc2c1CN1CCOCC1` here?
**A.** inconclusive: 22.4 µM [activator, partial curve]

**Q.** Which Potency does the source give for `CCCC[C@@H]1CCCO[C@@](C(=O)NCCN2CCOCC2)(C(F)(F)F)C1` here?
**A.** inactive

**Q.** How did the Potency turn out when `CC(=O)N1CCN(C(=O)CCc2c[nH]c3ccccc23)CC1` was run?
**A.** inconclusive: 1.12 µM [activator, single point]

**Q.** How did the Potency turn out when `CN1CCN(c2ncc3nc(-c4cccs4)c(=O)n(CCC#N)c3n2)CC1` was run?
**A.** inconclusive: 14.1 µM [activator, partial curve]

**Q.** `Cc1cccc2cc3c(nc12)SC(=NCC1CCCO1)N(Cc1ccco1)C3` (stereo not given) was tested. Which Potency did it give?
**A.** inactive

**Q.** How did the Potency turn out when `COc1ccc(-c2cc(C(F)(F)F)n3nc(N)nc3n2)cc1` was run?
**A.** inconclusive: 15.8 µM [activator, partial curve]

**Q.** For `CCNc1ncc2nc(-c3ccccc3)c(=O)n(Cc3ccc(F)cc3)c2n1`, which Potency is on record?
**A.** inconclusive: 31.6 µM [activator, single point]

**Q.** How did the Potency turn out when `CC(C)(C)NC(=O)CN(C(=O)CN1C(=O)C(=O)c2ccccc21)C(C)(C)C` was run?
**A.** inactive

**Q.** `CCN(CC)Cc1c(O)c(Cl)cc2c(C)c(C)c(=O)oc12` was tested. Which Potency did it give?
**A.** inconclusive: 35.5 µM [activator, partial curve]

**Q.** For `Cn1c(=O)c2c(nc(/C=C/c3cccc(Cl)c3)n2C)n(C)c1=O`, which Potency is on record?
**A.** inconclusive: 3.98 µM [activator, full curve] and inconclusive: 5.62 µM [activator, single point]

**Q.** `COc1cc(-c2n[nH]c(=O)o2)cc(OC)c1OC` was tested. Which Potency did it give?
**A.** inconclusive: 44.7 µM [inhibitor, single point]

**Q.** How did the Potency turn out when `COc1ccccc1[C@H]1C(c2ccccc2)=NN(c2ccccc2)[C@@H]1CO` was run?
**A.** inconclusive: 31.6 µM [activator, partial curve]

**Q.** How did the Potency turn out when `CC1=CC(c2ccccc2)n2nc(N3C(=O)CCC3=O)nc2N1` (stereo not given) was run?
**A.** inconclusive: 44.7 µM [activator, single point]

**Q.** `Fc1cnc(N2CCc3ccccc32)nc1N1CCc2ccccc21` was tested. Which Potency did it give?
**A.** inactive

**Q.** `Nn1c(=O)[nH]c2c([nH]c3ccccc32)c1=O` was tested. Which Potency did it give?
**A.** inconclusive: 31.6 µM [activator, single point]

**Q.** With `c1ccc2c(c1)ncc1cccn12` as the compound, how does the Potency read?
**A.** inconclusive: 35.5 µM [activator, partial curve]

**Q.** Which Potency does the source give for `CCc1cc(=O)n2c([nH]c3ccccc32)c1C#N` here?
**A.** inconclusive: 35.5 µM [activator, partial curve]

**Q.** How did the Potency turn out when `Cc1cc2c(C)cc(=O)oc2c2c1NCCC2` was run?
**A.** inconclusive: 28.2 µM [activator, partial curve]

**Q.** For `Cc1oc2cc(O)ccc2c(=O)c1Oc1ccc2ccccc2c1`, which Potency is on record?
**A.** inconclusive: 50.1 µM [activator, single point]

**Q.** `CC(=O)Nc1nc2n(n1)C(c1ccc(Cl)cc1)C=C(C)N2` (stereo not given) was tested. Which Potency did it give?
**A.** inconclusive: 35.5 µM [activator, partial curve]

**Q.** How did the Potency turn out when `C[C@@H](CN(C)C)CN1c2ccccc2CCc2ccccc21` was run?
**A.** inactive

**Q.** `Cc1nc2sccc2c(=O)n1N` was tested. Which Potency did it give?
**A.** inactive

**Q.** How did the Potency turn out when `CCOC(=O)C1(CCCc2ccccc2)CCN(C(=O)CCc2cnccn2)CC1` was run?
**A.** inactive

**Q.** How did the Potency turn out when `COc1cc(C(=O)N(Cc2cccnc2)Cc2cc3cc4c(cc3[nH]c2=O)OCCO4)cc(OC)c1OC` was run?
**A.** inconclusive: 22.4 µM [activator, partial curve]

**Q.** How did the Potency turn out when `Oc1ccc(-c2nc3ccccc3s2)cc1` was run?
**A.** inconclusive: 39.8 µM [activator, single point]

**Q.** For `CCN1c2ccccc2-c2nc3ccccc3n2C1c1ccco1` (stereo not given), which Potency is on record?
**A.** inconclusive: 35.5 µM [activator, partial curve]

**Q.** With `Cc1cccc(N(C)C(=O)COc2cc(=O)n(C)c3ccccc23)c1` as the compound, how does the Potency read?
**A.** inactive

**Q.** For `CCC1(C)Cc2c(sc3[nH]c(=O)[nH]c(=O)c23)CS1` (stereo not given), which Potency is on record?
**A.** inconclusive: 35.5 µM [activator, partial curve]

**Q.** `OC[C@@H]1[C@@H](c2ccccc2)C(c2ccc(F)cc2)=NN1c1ccccc1` was tested. Which Potency did it give?
**A.** inconclusive: 56.2 µM [activator, partial curve]

**Q.** How did the Potency turn out when `Fc1cccc(Cl)c1Cc1noc(/C=C/c2ccccc2)n1` was run?
**A.** inconclusive: 31.6 µM [activator, single point]

**Q.** How did the Potency turn out when `O=S(=O)(c1cccc(-c2cn3cccnc3n2)c1)N1CCCCCC1` was run?
**A.** inconclusive: 35.5 µM [activator, single point]

**Q.** `CCOc1ccccc1-n1c(SCC(=O)Nc2nccs2)nnc1-c1ccoc1C` was tested. Which Potency did it give?
**A.** inconclusive: 11.2 µM [activator, single point]

**Q.** With `Cc1ccc2nc3c(cc(C#N)c(=O)n3-c3nccs3)c(=O)n2c1` as the compound, how does the Potency read?
**A.** inconclusive: 6.31 µM [activator, full curve]

**Q.** For `CSc1sc(C(=O)NNC(C)=O)c2c1C1(CCC2)SCCS1`, which Potency is on record?
**A.** inactive

**Q.** With `C=CCNC(=O)c1cc2c(=O)n3cc(C)ccc3nc2nc1NCC1CCCO1` (stereo not given) as the compound, how does the Potency read?
**A.** inconclusive: 39.8 µM [activator, partial curve]

**Q.** For `CSc1nc2n(n1)C(c1cccs1)C1=C(CCCC1=O)N2` (stereo not given), which Potency is on record?
**A.** inconclusive: 31.6 µM [activator, single point]

**Q.** For `O=C(Nc1cccnc1)C12CC3CC(CC(C3)C1)C2`, which Potency is on record?
**A.** inactive

**Q.** Which Potency does the source give for `c1ccc(-c2cn3cccnc3n2)cc1` here?
**A.** inconclusive: 39.8 µM [activator, partial curve]
